Measurements from PubChem BioAssay AID540267 (National Center for Advancing Translational Sciences (NCATS), 2011).
Out of some 340,000 compounds screened, about 530 (0.16%) were called active. The inconclusive results got no clear call from the source; some entries with a clear call stand among them for comparison. Cut-off read from the data, not from the text of the source: active = activity change below about -80%; inconclusive = between about -30% and that limit; inactive = weaker than that.

Experiment: Small Molecules that selectively kill Giardia lamblia: qHTS;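 note: parasites exposed to compound for two days anaerobically before the ATP read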
Settings: Giardia lamblia trophozoite viability; at 7.66 µM; stronger effect = lower value
Outline: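 Viability, read as ATP luminescence: trophozoites at 100 cells/well, compound added, 48 hrs anaerobic at 37 deg C, then 15-30 min room-temperature development before reading.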
% is set by controls: 0 for no effect and ±100 for the full control effect.

Structure (SMILES) | activity change
O=C(c1ccc(N2CCN(S(=O)(=O)c3ccccc3)CC2)c([N+](=O)[O-])c1)N1CCOCC1 | inactive: 1.87%
CN(C)c1ccc(C(=O)c2ccccc2C(=O)O)c(O)c1 | inactive: -1.48%
CCc1nnc(NC(=O)CSc2nc3c(cc2C#N)CCC3)s1 | inconclusive: -44.9% [inhibitor]
COc1ccc(NS(=O)(=O)c2ccc(S(=O)(=O)N(C)C)cc2)cc1S(N)(=O)=O | inconclusive: -51.3% [inhibitor]
Cc1ccc(S(=O)(=O)N2[C@@H](c3ccc(Cl)cc3)C(C(=O)O)=CC[C@H]2c2ccc(Cl)c(Cl)c2)cc1 | inconclusive: -47.4% [inhibitor]
O=C(CCN1C(=O)c2ccccc2C1=O)NCc1ccc(F)cc1 | inconclusive: -45.9% [inhibitor]
CCOc1ccc(NC(=O)Cc2c(C(=O)O)n(C)c3ccccc23)cc1 | inconclusive: -35.2% [inhibitor]
CCC1(C)Cc2c(sc3nc(SC)n(Cc4ccccc4)c(=O)c23)CO1 (stereo not drawn) | inactive: 13.1%
O=C(COc1ccc(Cl)cc1Cl)Nc1ccc(S(=O)(=O)NC2=NCCCCC2)cc1 | inconclusive: -40.4% [inhibitor]
Cc1ccnc(Nc2nc(-c3ccccc3)cs2)c1 | inconclusive: -36.6% [inhibitor]
COc1cc2c(cc1OC)C(c1ccccc1)N(C(=O)CSCC(=O)O)CC2 (stereo not drawn) | inconclusive: -30.7% [inhibitor]
COc1ccc(NC(=O)C2CCN(S(C)(=O)=O)CC2)cc1OC | inconclusive: -37.1% [inhibitor]
CCCCN1CC(COCc2ccccc2)Oc2cccc(Oc3ccc(C(C)C)cc3)c2S1(=O)=O (stereo not drawn) | inconclusive: -33.9% [inhibitor]
O=C(COc1ccc(/C=N/NC(=O)c2cc3ccccc3o2)cc1Cl)Nc1ccccc1 | inconclusive: -32.8% [inhibitor]
Cc1cc(C)c(C#N)c(SCc2ccc3c(c2)OCO3)n1 | inconclusive: -37.1% [inhibitor]
CCCOc1ccc(C(=O)NC(=S)NNC(=O)c2c(-c3ccccc3)noc2C)cc1 | inconclusive: -36.2% [inhibitor]
CC(NC(=S)Nc1c(Br)cccc1OC(F)F)C(C)(C)C (stereo not drawn) | inactive: -12.3%
Cc1ccc(CN2CCc3[nH]c(=S)[nH]c(=O)c3C2)cc1 | inconclusive: -37% [inhibitor]
CC(=O)N(CCC(Cc1ccccc1)c1ccc2c(c1)OCO2)Cc1ccc(Cl)cc1 (stereo not drawn) | inactive: 7.87%
Nc1c(SCCC(=O)O)ccc2c1C(=O)c1ccccc1C2=O | inconclusive: -35.4% [inhibitor]
COc1ccc(C2c3ccc4ccccc4c3Oc3ncn(CCCN(C)C)c(=N)c32)cc1 (stereo not drawn) | inactive: -11.4%
COc1cccc(NC(=O)c2ccc3c(O)c(S(=O)(=O)c4ccccc4)c(=O)[nH]c3c2)c1 | inactive: -1.65%
Cc1ccc(COc2ccsc2C(=O)NN)cc1 | inactive: -18.1%
COc1cccc(NC(=O)CCNS(=O)(=O)c2ccc3c(c2)CC(C)N3C(=O)C2CC2)c1 (stereo not drawn) | inactive: -2.33%
COc1cc2c(cc1OC)C1=C(C#N)CN(C3CCCCC3)CN1CC2 | inconclusive: -31.7% [inhibitor]
Cc1cc(C(=O)N/N=C/c2ccc([N+](=O)[O-])s2)c2ccccc2n1 | active: -95.2%

Structure (SMILES) | activity change
CCCCn1c(N)c(N(CCOC)C(=O)c2cc(-c3ccc(F)cc3)nc3ccccc23)c(=O)[nH]c1=O | inconclusive: -32.9% [inhibitor]
COc1cccc(NC(=O)Cn2cc(C=O)c3ccccc32)c1 | inactive: -9.48%
COc1cccc(C(=S)N2CCCC2)c1OC | inactive: -0.533%
Cc1ccc(C(=O)Nc2nnc(S(=O)(=O)N3CCOCC3)s2)cc1 | inconclusive: -33% [inhibitor]
CCCC(C)NC(=O)c1ccc(OCc2ccc(Cl)cc2)c(OC)c1 (stereo not drawn) | inactive: 2.95%
COc1ccc(/C=C(\C#N)C(=O)OCC(=O)Nc2ccc(-c3nc4ccc(C)cc4s3)cc2)cc1 | inactive: -11.5%
O=C(CSC1=NCCS1)N1CCN(c2ccc(Cl)cc2)CC1 | inconclusive: -31.4% [inhibitor]
CC1(C)CC2CC(C)(CN2C(=O)COC(=O)c2ccc(NC(=O)CC#N)cc2)C1 (stereo not drawn) | inactive: -16.3%
COc1ccc(C2CC(c3ccccc3)Nc3ncnn32)cc1 (stereo not drawn) | inconclusive: -64.3% [inhibitor]
CC(C)(C)c1ccc(C(=O)Nc2cccc(S(=O)(=O)NC3=NCCC3)c2)cc1 | inconclusive: -68% [inhibitor]
CCOC(=O)CCn1nc(-c2ccc(C)cc2)c2ccccc2c1=O | inconclusive: -31.3% [inhibitor]
N#Cc1ccc(/C=C/C(=O)c2ccco2)cc1 | inconclusive: -30.7% [inhibitor]
Cc1ccc(NC(=O)C(C)c2ccc([N+](=O)[O-])cc2)cc1Cl (stereo not drawn) | inactive: -4.21%
O=C1CCCCCCCN1Cc1ccccc1 | inconclusive: -41% [inhibitor]
COc1ccc(C2(C)NC(=O)N(CC(=O)Nc3cccnc3Cl)C2=O)cc1 (stereo not drawn) | inconclusive: -30.7% [inhibitor]
NC(=O)C1(Nc2ccc(-c3ccccc3)cc2)CCCC1 | inconclusive: -42.8% [inhibitor]
COc1ccc(-n2nc(C(=O)NCC(=O)N3CCN(c4ccccc4)CC3)c3ccccc3c2=O)c(OC)c1 | inconclusive: -34.6% [inhibitor]
Nc1ccccc1SSc1ccccc1N | inactive: -24.1%
CCN1C(=O)C(O)(CC(=O)c2ccc3c(c2)OCCO3)c2ccccc21 (stereo not drawn) | inconclusive: -34.6% [inhibitor]
COc1ccc(/C=N/NC(=O)c2ccn[nH]2)cc1Cn1cc([N+](=O)[O-])cn1 | inconclusive: -33% [inhibitor]
Clc1c(-c2ccccc2)nc2ccccn12 | inconclusive: -33.7% [inhibitor]
Cc1c(OCC(=O)NCC2CCC(C(=O)O)CC2)ccc2c(-c3ccccc3)cc(=O)oc12 (stereo not drawn) | inactive: 13.4%
CN(C)c1ccc(/C=N/NC(=O)CN2CCCCC2)cc1Br | inconclusive: -30.8% [inhibitor]
COc1c(Cl)cccc1-c1cn2ccc(C)cc2n1 | inconclusive: -37.5% [inhibitor]
CCCCn1c(-c2ccccc2C)nc2cc3[nH]c(=O)c(C(C)C)nc3cc21 | inconclusive: -34.8% [inhibitor]
Clc1cc(Cl)cc(Nc2ncn[nH]2)c1 | inactive: -3.92%

Structure (SMILES) | activity change
COc1ccc2c(=O)c(-c3ccc4c(c3)OCO4)coc2c1 | inconclusive: -36.4% [inhibitor]
CCCc1ccc(C(=O)CCC(=O)NNC(=O)c2ccncc2)cc1 | inconclusive: -34.3% [inhibitor]
Nc1c(C(=O)NCc2ccccc2)nnn1Cc1cccc(Cl)c1 | inconclusive: -31.1% [inhibitor]
CC(C)(C)n1nc2c(c1NC(=O)COc1ccc3ccccc3c1)CS(=O)C2 (stereo not drawn) | inconclusive: -44.6% [inhibitor]
CC1(C)Cc2c(sc3nnn(Cc4ccccc4)c(=O)c23)CO1 | inactive: -27.1%
Cc1cc(N(C)/N=C/c2ccccc2O)nc(-c2ccccc2O)n1 | inactive: 1.35%
O=C(Nc1ccc(N2CCN(C(=O)c3ccco3)CC2)c(Cl)c1)c1cccnc1 | inconclusive: -32.5% [inhibitor]
COc1ccc2[nH]c3c(c2c1)CCN1C(=O)C(CC(=O)NCCC2=CCCCC2)C[C@H](C(=O)N2CCCCC2)[C@@]31C (stereo partly drawn) | inconclusive: -30.9% [inhibitor]
CC1(OC(=O)c2ccc(Cl)nc2)C(=O)C=C2C=C3CCCN3C=C2C1=O (stereo not drawn) | inactive: -2.82%
CC(=O)Nc1nnc(CCS(=O)(=O)c2ccc(C)c(C)c2)s1 | inconclusive: -35.5% [inhibitor]
Cc1cccc(C(=O)NCCCNC(=O)c2ccc(C)nc2)c1 | inconclusive: -30.9% [inhibitor]
CC(=O)c1ccc(OCCCC(=O)Nc2cccc(S(=O)(=O)N(C)C)c2)cc1 | inactive: 23.2%
O=C(Cc1ccc(NC(=O)C2CCN(C(=O)C3CC3)CC2)cc1)Nc1cccc(C(=O)N2CCCCC2)c1 | inactive: 1.5%
C=CCc1cccc(C2Nc3ccccc3C(=O)N2O)c1O (stereo not drawn) | inactive: -20.3%
CSc1cccc(NC(=S)N2CCCN(Cc3ccc(F)cc3)C2)c1 | inactive: -3.4%
O=C(CCn1ccc([N+](=O)[O-])n1)NC1CCCCCC1 | inconclusive: -33.9% [inhibitor]
CCc1cc2c(COC(=O)c3cccc(NS(C)(=O)=O)c3)cc(=O)oc2cc1O | inactive: -8.2%
CC(C)(C)NC(=O)NC(=O)COC(=O)CCC1CCCC1 | inconclusive: -37.6% [inhibitor]
C[C@@]12C(=O)OC(=O)[C@]1(C)C1CCC2O1 | active: -94.1%
Cc1ccc2nc(-c3ccc(O)cc3)oc2c1 | inconclusive: -62.8% [inhibitor]
Cc1ncc([N+](=O)[O-])n1CCO | inconclusive: -68.5% [inhibitor]
CC1(C)Cc2nc3sc4c(SCC(=O)O)ncnc4c3cc2CO1 | inconclusive: -60.7% [inhibitor]
COc1ccccc1N(CC(=O)NCCSCc1ccc(C)cc1)S(=O)(=O)c1ccccc1 | inconclusive: -31.2% [inhibitor]
CSc1nnc(NC(=O)c2ccc(S(=O)(=O)N(C)C)cc2)s1 | inconclusive: -39.4% [inhibitor]
CC1(C(=O)OCC(=O)c2c[nH]c3ccccc23)CC1(Cl)Cl (stereo not drawn) | inconclusive: -32.6% [inhibitor]
COc1ccc(C(CC(=O)N2CCOCC2)c2c(OC)cc(OC)c3c(-c4ccccc4)cc(=O)oc23)cc1 (stereo not drawn) | inconclusive: -35.9% [inhibitor]
